# Data as given in PMC4336329 (PLoS ONE, 2015).
# Hit rate of the full screen: of about 310,000 compounds, about 14,000 (4.5%) showed an effect of 50% or more. The effect is printed as a negative number. Some of the results follow.
# Molecular target: human ether-à-go-go-related gene (hERG) potassium channel (human, UniProt Q12809)
# Assay: primary screen, population patch clamp on CHO cells stably expressing hERG
# 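Further: peak tail current of the secondary pulse compared with the same well before compound.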
# Chain of human ether-à-go-go-related gene (hERG) potassium channel (Q12809 whole entry, looked up): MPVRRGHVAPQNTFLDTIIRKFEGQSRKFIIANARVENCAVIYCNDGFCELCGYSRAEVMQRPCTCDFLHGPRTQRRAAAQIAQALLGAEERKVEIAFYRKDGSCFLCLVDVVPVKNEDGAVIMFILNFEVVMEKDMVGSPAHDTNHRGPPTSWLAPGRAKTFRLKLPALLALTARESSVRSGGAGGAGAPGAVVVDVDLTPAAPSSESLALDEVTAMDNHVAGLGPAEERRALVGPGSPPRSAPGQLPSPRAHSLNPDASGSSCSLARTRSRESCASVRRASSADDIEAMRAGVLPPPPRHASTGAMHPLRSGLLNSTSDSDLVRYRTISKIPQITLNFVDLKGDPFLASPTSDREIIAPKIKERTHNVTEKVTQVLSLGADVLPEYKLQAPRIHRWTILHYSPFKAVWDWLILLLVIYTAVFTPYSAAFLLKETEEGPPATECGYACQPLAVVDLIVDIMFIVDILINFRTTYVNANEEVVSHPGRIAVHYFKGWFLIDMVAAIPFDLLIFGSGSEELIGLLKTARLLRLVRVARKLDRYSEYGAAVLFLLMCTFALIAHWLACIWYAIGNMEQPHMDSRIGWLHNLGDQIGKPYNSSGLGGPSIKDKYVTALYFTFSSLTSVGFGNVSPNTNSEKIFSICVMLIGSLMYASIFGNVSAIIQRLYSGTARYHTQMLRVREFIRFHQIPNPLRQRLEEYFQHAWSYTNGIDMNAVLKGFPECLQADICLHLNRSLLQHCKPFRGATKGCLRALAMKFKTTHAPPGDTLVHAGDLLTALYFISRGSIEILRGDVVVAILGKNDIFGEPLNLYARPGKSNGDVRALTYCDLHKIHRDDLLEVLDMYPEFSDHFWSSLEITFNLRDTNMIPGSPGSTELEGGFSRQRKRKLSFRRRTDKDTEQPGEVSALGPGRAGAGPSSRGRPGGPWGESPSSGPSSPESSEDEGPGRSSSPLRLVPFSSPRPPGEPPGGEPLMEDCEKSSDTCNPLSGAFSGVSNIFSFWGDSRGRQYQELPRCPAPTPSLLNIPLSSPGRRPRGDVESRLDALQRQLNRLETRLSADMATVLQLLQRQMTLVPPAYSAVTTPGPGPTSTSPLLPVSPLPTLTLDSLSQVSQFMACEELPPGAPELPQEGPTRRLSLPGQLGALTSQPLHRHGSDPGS
row,Structure (SMILES),"hERG current change (%, negative = inhibition) at 10uM"
1,O=C(NNc1cc(Cl)cc(Cl)c1)c1c(F)cccc1Cl,8.39%
2,CCN(Cc1ccccc1)C(=O)c1cc2c(=O)oc3ccc(C)cc3c2s1,6.76%
3,COc1ccc(Br)cc1CN(C)CC(O)COc1ccc(Br)cc1 (centres unmarked),-74.6%
4,Cc1ccc(C(=O)O/N=C/c2c(N3CCOCC3)n(C)c3ccccc23)cc1,2.86%
5,O=C(Nc1ccccc1N1CCCC1)c1ccc(Cl)cc1Cl,8.88%
6,CCCc1nc2sc3c(SCC(=O)NCc4ccco4)ncnc3c2c2c1CCC2,7.19%
7,CCc1ccc(C(=O)Nc2nc(C)cs2)s1,4.04%
8,Brc1ccccc1CN1CCC(N2CCCCC2)CC1,-24.6%
9,CC1CN(C(=O)N2c3ccccc3Sc3ccccc32)CC(C)O1 (centres unmarked),4.07%
10,O=C(CCc1c[nH]c2ccccc12)NCc1cccc(Cl)c1,-13.8%
11,COc1cccc(NC(=S)NC(=O)Cc2ccc(Cl)cc2)c1,19.8%
12,O=C(Nc1ccc(O)cc1C(=O)O)c1cccc(Br)c1,19.6%
13,CC(C)(C)n1nnnc1C(c1ccccc1)N1CCc2ccccc2C1 (centres unmarked),-0.455%
14,CCOc1ccc(S(=O)(=O)N2CCC(C(=O)NCc3ccccc3CN3CCCC3)CC2)cc1,-64.3%
15,Cc1ccc(S(=O)(=O)N(C)/N=C/c2ccc(C(=O)O)cc2)cc1,-7.51%
16,O=C(N/N=C/c1ccc(N2CCOCC2)cc1)c1ccncc1,2.18%
17,O=C(CN1C(=O)NC2(CCOc3ccccc32)C1=O)NCC(F)(F)F (centres unmarked),1.08%
18,COc1ccc2c(C=O)c[nH]c2c1,2.04%
19,CCN1C(=O)c2ccc(C(=O)Nc3cccc(C(=O)O)c3)cc2C1=O,21%
20,C=C(C)[C@@]12OC3(c4ccccc4)O[C@@H]1C1[C@@H]4O[C@]4(CO)[C@@H](O)[C@]4(O)C(=O)C(C)=C[C@H]4[C@@]1(O3)[C@H](C)[C@H]2OC(=O)/C=C/C=C/c1ccccc1 (some centres unmarked),11.9%
21,CC1(C)C[C@@H](O)CC2(C1)C[C@]1(C)CC(O)[C@H]2C(C)(C)C1 (some centres unmarked),2.87%
22,COc1cccc(C(=O)N2CCN(Cc3cccc(F)c3)CC2)c1.O=C(O)C(=O)O,-7.48%

row,Structure (SMILES),"hERG current change (%, negative = inhibition) at 10uM"
1,O=C(NCCc1ccccc1)C(=O)NC1CCCCC1,1.61%
2,COC(=O)/C(=C\Nc1ccccc1N)c1ncc(C(F)(F)F)cc1Cl,3.74%
3,Cc1ccc(/C=C2\SC(=S)N(CCCC(=O)NNC(=O)c3ccccc3O)C2=O)cc1,-20.1%
4,O=C(C1CCCCC1)N1CC(=O)N2CCc3ccccc3C2C1 (centres unmarked),10.2%
5,COc1cc(CN2CCCC(N3CCN(c4ccc(F)cc4)CC3)C2)ccc1F (centres unmarked),-64.4%
6,Cc1sc2ncn(CC(=O)N3CCCCC3)c(=O)c2c1S(=O)(=O)N1CCC(C)CC1,-3.97%
7,CNC(=O)N(C1=NCC(C)S1)c1ccc(F)cc1F (centres unmarked),-24.2%
8,COC(=O)C1=CN(C(C)C)C=C(C(=O)OC)C1c1cccc(OC)c1,-9.85%
9,Cc1cc(C)cc(OCC(=O)NNC(=O)C2CCCO2)c1 (centres unmarked),9.83%
10,Cc1c(Cl)cccc1NC(=S)Nc1ccc2[nH]c(=O)[nH]c2c1,4.53%
11,CC(=O)Nc1ccc(C(=O)CSc2nnc(Cn3nnc4ccccc43)n2C)cc1,5.92%
12,COc1cc(C#CC#CCN2CCCCC2)ccc1O.Cl,-3.87%
13,Cc1cccc(NC(=O)C(C)N2CC=C(c3ccccc3)CC2)c1 (centres unmarked),-2.86%
14,O=C(CCC1CCCCC1)Nc1nccs1,-1.58%
15,CSc1ccc(C2C3(C#N)C(N)=NC4(OCCO4)C23C#N)cc1 (centres unmarked),-3.53%
16,COc1ccc(-c2csc(NC(=O)CSc3nnc(Nc4ccccc4C)s3)n2)cc1,16.6%
17,CCN(CC(=O)NCc1cccs1)C(=O)c1cc(S(=O)(=O)NCc2ccccc2)ccc1C,-41.7%
18,CC1=NN=C(c2ccccc2)C(c2c[nH]c3ccccc23)N1O (centres unmarked),24.1%
19,Cc1ccc2c(COC(=O)c3ccccc3Cl)cc(=O)oc2c1,24%
20,O=C(CNS(=O)(=O)c1ccc([N+](=O)[O-])cc1)N/N=C\c1ccc(O)cc1,10%
21,COCOc1ccc(-c2oc3c(C/C=C(\C)CCC=C(C)C)ccc(O)c3c(=O)c2OCOC)c(OCOC)c1,-9.2%
22,O=C1S/C(=C\c2ccccc2)C(=O)N1CC(O)Cn1c2ccccc2c2ccccc21 (centres unmarked),10.2%

row,Structure (SMILES),"hERG current change (%, negative = inhibition) at 10uM"
1,CCC(C)Sc1ccc([C@H]2N[C@@](Cc3ccccc3)(C(=O)OC)[C@H]3C(=O)N(C)C(=O)[C@@H]23)cc1.O=C(O)C(F)(F)F (some centres unmarked),-19.1%
2,Cc1ccsc1C(=O)c1sccc1C,-3.08%
3,Cc1noc(C)c1COC(=O)COc1ccc(-c2ccccc2)cc1,6.28%
4,CC(=O)Oc1ccc(N2C(=O)CCC2=O)cc1,16%
5,COc1cccc2c(=O)n(CC(=O)N3CCCCCC3)ccc12,4.85%
6,COc1ccc(S(=O)(=O)CC2(O)CCN(C(=O)CC(C)C)CC2)cc1,1.79%
7,O=C(/C(C=Nc1ccc(F)cc1)=C(/O)c1ccco1)C(F)(F)F,-26.7%
8,CC1(C)CC(CCC(=O)Nc2ccc(S(N)(=O)=O)cc2)C(=O)O1 (centres unmarked),26.2%
9,CCn1c(SCC(=O)N2CCCCCC2)nc2c([nH]c3ccccc32)c1=O,-18.6%
10,CC(=O)c1ccc(NC(=S)NCCCN2CCOCC2)cc1,14.9%
11,COc1cc2ncnc(NCc3ccccc3)c2cc1OC,-11.2%
12,Cl.O=C(CN1CCCC1)NC12CC3CC(CC(C3)C1)C2,-2.98%
13,Cc1cccn2c(=O)c3cc(C(=O)NCc4ccco4)c(=N)n(C4CCCC4)c3nc12,-78.8%
14,CN1C(=O)N(C)C(=O)C(CCc2ccncc2)(CCc2ccncc2)C1=O,-51.2%
15,COc1ccccc1NCCC(=O)OCC(=O)Nc1cccc(S(=O)(=O)N(C)C)c1,1.54%
16,COCn1c(C(O)c2ccccc2)cc2ccccc21 (centres unmarked),6.02%
17,N#Cc1nc(N)nc(N(c2ccccc2)c2ccccc2)n1,-3.89%
18,COC(=O)c1cn(C(=O)c2cc(Cl)ccc2Cl)c2ccccc12,18.1%
19,COC(=O)Nc1nc(Sc2ncc(C(F)(F)F)cc2Cl)n[nH]1,18.6%
20,Cc1ccc([C@@H]2CC=C(C(=O)O)CN2S(=O)(=O)c2ccc(C)cc2)cc1,22.3%
21,Cc1ccnc(NC(=O)CCC(=O)N(CC(=O)NCC2CCCO2)Cc2ccc(F)cc2)c1 (centres unmarked),0.34%
22,CCOc1ccc(CC(=O)N/N=C/c2sccc2C)cc1,14.5%

row,Structure (SMILES),"hERG current change (%, negative = inhibition) at 10uM"
1,CC1CC(C)CN(S(=O)(=O)c2ccc3c(c2)n(C)c(=O)c(=O)n3C)C1 (centres unmarked),-2.6%
2,CCOC(=O)c1sc2nc(SC)nc(-c3ccccc3)c2c1N,16.3%
3,CN(C)[C@@H](CO)c1nnc([C@H](CC(=O)O)NC(=O)C2CCNCC2)o1.Cl,10%
4,CCCCN(C)C(=O)C1CCC(=O)N(c2cc(OC)c(OC)c(OC)c2)C1c1ccc(OC)cc1 (centres unmarked),8.39%
5,COc1ccccc1NC(=O)NCc1nc(-c2ccc(C(F)(F)F)cc2)no1,12.7%
6,Cc1cccnc1NC(=S)NC(=O)c1cccs1,5.86%
7,CC(C)CC(C(=O)O)N1C(=O)C2C3CC(C2C1=O)C1C(c2ccccc2)c2sc(=O)[nH]c2SC31 (centres unmarked),-1.65%
8,COC(=O)c1cc(Br)ccc1OC(=O)c1cccnc1,7.06%
9,COc1ccc2nc(NCCCO)[nH]c2c1,-0.951%
10,Cc1cccc2cc3c(nc12)SC(=NCC1CCCO1)N(Cc1ccco1)C3 (centres unmarked),5.01%
11,COc1cc(/C=N/NC(=O)c2cccc([N+](=O)[O-])c2)cc(OC)c1O,-10.8%
12,O=C1C(SCCO)=C(SCCO)C(=O)c2ccccc21,-11%
13,O=C(c1ccccc1)c1ccc(-n2cnnc2)c([N+](=O)[O-])c1,-10.7%
14,CC(C)N1CCc2c(sc(NC(=O)c3cc(-c4cccs4)nc4ccccc34)c2C(N)=O)C1.Cl,1.83%
15,CCn1c(SCC(=O)N/N=C/c2ccccc2OCC(=O)O)nnc1-c1ccc(C)cc1,3.57%
16,CCOc1cc(C2C3=C(CCCC3=O)N(CCC(=O)O)C3=C2C(=O)CCC3)ccc1OS(=O)(=O)c1ccc(C)cc1,0.528%
17,COC(=O)COc1ccc(S(=O)(=O)NCc2ccccn2)cc1,13.3%
18,CCC(C)Nc1nc2c(C)cccn2c(=O)c1C=Nc1ccc(OC)cc1 (centres unmarked),10.1%
19,O=C(O)c1cc(S(=O)(=O)NCCN2CCNC2=O)ccc1O,14.1%
20,CN(Cc1ccccc1)CC(O)COc1ccc(CNCc2ccc(Cl)s2)cc1 (centres unmarked),-12.3%
